# Reference: the supplement of paper PMC12217912
# The list shows a part of the results. Sequences were assembled here from the parent chain. Inactive controls read about 0.05.
# B1: TEV protease; numbered along this chain (parent)
# chain: MGESLFKGPRDYNPISSSICHLTNESDGHTTSLYGIGFGPFIITNKHLFRRNNGTLVVQSLHGVFKVKDTTTLQQHLVDGRDMIIIRMPKDFPPFPQKLKFREPQREERICLVTTNFQTKSMSSMVSDTSCTFPSGDGIFWKHWIQTKDGQCGSPLVSTRDGFIVGIHSASNFTNTNNYFTSVPKNFMELLTNQEAQQWVSGWRLNADSVLWGGHKVFMVKPEEPFQPVKEATQL
# Variants of: B1
# Test: raw area under fraction-flipped curve 0-4 h after induction (AUC4h, not background-subtracted), DNA-recorder readout of cleavage of the substrate (dimensionless); higher = more cleavage of the substrate by the protease variant
# Conditions: temperature: 34 °C; time window: 0-4 h after rhamnose induction
# Method: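 In vivo DNA recorder in E. coli TOP10(DE3) ΔrhaA at 34 °C. Each TEVp single-site mutant (parent TEVp 0) is paired with a single-site variant of the 7-mer TEVs (canonical ENLYFQ|S). The substrate sits between flexible linkers in a Bxb1-sfGFP-TEVs-SsrA fusion, so cleavage stabilises Bxb1 and speeds flipping of a recombination array, read by NGS. The value is the raw area under the fraction-flipped curve over 0-4 h after rhamnose induction (AUC4h), with ≥20 reads per time point. It is not background-subtracted; inactive controls average about 0.047.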
# 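Further: Bxb1 expression induced with 0.2% (w/v) L-rhamnose at OD600 near 0.5, cultures sampled hourly, flipped fraction per protease–substrate barcode pair counted by paired-end Illumina sequencing.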
Variant,area with substrate ENLYFQC,area with substrate ENLYFQF,area with substrate ENLYFQH,area with substrate ENLYFQI,area with substrate ENLYFQL,area with substrate ENLYFQN,area with substrate ENLYFQP,area with substrate ENLYFQQ,area with substrate ENLYFQR,area with substrate ENLYFQS,area with substrate ENLYFQT,area with substrate ENLYFQV,area with substrate ENLYFQG,area with substrate ENLYFQK,area with substrate ENLYFQM,area with substrate ENLYFQW,area with substrate ENLYFQY,area with substrate ENLYFQD,area with substrate ENLYFQE
W199F,0.0921,0.0682,0.0618,0.0756,0.0616,0.0708,0.0528,0.0615,0.0602,0.081,0.0588,0.0625,–,–,–,–,–,–,–
W199P,–,–,0.0736,0.0684,0.064,–,–,0.0721,0.0691,0.069,0.0687,–,0.0546,0.0691,0.0525,0.0574,–,–,–
R160W,–,–,0.105,–,–,–,–,0.0652,0.0643,0.102,0.0842,–,–,0.0863,0.0773,0.106,–,–,–
T181F,–,0.0595,0.0569,0.0601,0.0637,0.0595,0.0494,0.0589,0.0528,0.0607,–,–,–,0.0512,0.0601,0.0642,0.0558,–,–
F226G,0.124,0.0499,–,0.0701,0.0588,0.086,–,–,0.058,0.0966,0.0762,0.0828,–,0.0656,–,0.0752,0.12,–,–
R109L,–,0.0696,–,0.0853,0.0337,–,0.0571,–,0.0634,0.1,–,0.0626,0.125,0.0622,0.111,0.0719,0.0554,0.0764,–
N116Y,–,–,0.0729,0.0757,0.0768,–,0.0449,–,–,0.0955,–,–,0.0856,0.0768,0.0935,0.055,0.0644,0.0413,–
K185S,–,–,0.0801,–,0.0655,–,0.0577,–,0.0456,0.104,0.0684,–,0.105,–,0.0898,0.0775,0.0566,0.0804,–
K185M,0.118,0.088,0.0741,0.0393,0.0478,0.0924,–,–,–,0.11,0.0718,–,–,0.0699,0.0884,–,–,–,–
K90G,–,–,–,–,–,–,–,–,0.0595,0.0989,–,–,–,–,–,0.0713,0.0667,–,–
Q198N,–,0.0725,–,0.0615,–,–,–,–,0.0623,0.1,0.0846,–,–,0.0542,0.102,0.0328,0.0766,0.0924,–
Q198L,0.102,–,–,0.0637,0.0491,0.072,–,–,0.0591,0.102,0.0588,0.0393,0.0961,0.0731,0.0886,–,–,0.0758,0.0691
Q198A,0.101,–,–,0.0627,–,0.0671,–,–,0.0444,0.088,0.0716,0.0727,0.0833,0.0584,–,0.0551,0.0611,0.0635,–
V183P,–,0.0754,0.0705,0.0733,–,0.0577,–,0.0629,0.0538,0.0941,0.0474,0.0496,0.104,0.0541,0.067,0.0611,–,0.0693,0.0479
V183D,–,–,0.0481,0.046,0.0373,0.0445,0.0673,0.0429,–,0.0494,0.0543,0.0255,–,–,0.0462,–,–,–,0.0522
V183A,0.0952,0.058,0.095,–,0.0606,0.0772,0.0478,0.0886,0.0662,0.0948,0.0571,–,–,0.0641,0.0654,0.0665,0.0834,–,–
V57N,–,–,–,–,0.0495,–,0.0505,0.0903,0.0714,0.101,0.0728,0.0626,–,0.0445,0.115,–,–,–,–
I145V,–,–,0.0752,0.0681,0.0822,–,–,–,–,0.122,0.0825,0.0451,–,–,0.0999,0.0849,0.0844,–,–
Q227W,–,–,–,0.0592,–,0.0807,–,0.069,0.0548,0.0991,0.0651,–,–,0.0444,0.0971,0.0532,–,0.0674,–
F187R,0.0603,–,–,0.0505,0.0458,0.0499,0.0387,–,0.0512,0.0514,0.0441,0.0713,0.047,0.0649,–,0.0471,–,0.0342,–
F187D,0.045,0.054,0.052,0.0484,0.049,0.0545,–,–,0.0551,0.0563,–,0.0531,–,–,0.0485,0.0623,0.0535,0.0204,–
